In assay [1] the target is Neu5Gc(a2-8)Neu5Gc(a2-6)Gal(b1-4)GlcNAc. The experiment in a line: glycan array binding signal (z-score within array); higher = stronger binding. The following applies: glycan notation: IUPAC condensed, linker removed. A digest of the protocol: (§1)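 Glycan array binding is given as a within-array Z-score, which can be read as non-binding when negative. The arrays, 3228 of them, came from the Consortium for Functional Glycomics database and were retained only where the protein sequence was available. Z-scores were averaged across arrays of the same protein sequence at different concentrations or buffers and across linkers.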

For assay [2], the target named is Neu5Gc(b2-6)Gal(b1-4)GlcNAc. Described as above. The following applies: glycan notation: IUPAC condensed, linker removed. An outline of the steps:
as §1

The values below come from the supplement of paper PMC8728848.

The other results are listed elsewhere or left out.

B1: SP8524D-bot-399-27-399 (Bacteroides ovatus) (protein)
chain: DAKYDTLDTHAYIEEALSSTSQKVTVQATGESFTTLNVHLSNLSSTDNHYKLVTDQSVLDTYNHINGTGYIMLPKDYYTLPETITVKAGQYAADALSIALKAFSQEMMKSGESYALPVKLVLQDGSISPMENTGTFVILAESIIEFSAPMFVGAPSLKANKFTESPETYSQYTIEVRFQVANTADRDRAVFKNGGDDANFILLRFEDPQSDNENYKAHSLVQIVGRNRLYLNPSNSFKPNEWQHLALVCDGSNYRLYINGVDSGVLSIPTGATTFSDVNWFCLGDDSYSRWGNCKILMSEARIWSVVRSASQIQNNMTQVSPKSVGLEAYWRFNEGQGNVFEDATGKGHTLTTSATPTWIDGILSTDKSTEWK
As to B1, the “glycan array binding signal (z-score)” value in assay [1] was -0.498; in assay [2] it was 0.555.
